From PubChem BioAssay AID504832 (National Center for Advancing Translational Sciences (NCATS), 2011)
The campaign covered roughly 310,000 compounds. About 18,000 (5.8%) were called active. The inconclusive results got no clear call from the source; some entries with a clear call stand among them for comparison. The call rests on the fitted dose curve; in most records, active means well fitted inhibition curve with a large enough effect; inconclusive means small, poorly fitted or top-dose-only effect, or another doubt; inactive means no such curve, though single readings can be large or run the other way. No potency is given beside an inconclusive call; the fits are too rough.
On the % scale 0 is the no-effect control and ±100 the full control effect; potency means the concentration at half of the fitted maximal effect; tags describe the fitted curve by direction and shape.

Experiment: Primary qHTS for delayed death inhibitors of the malarial parasite plastid, 48 hour incubation
Settings: P. falciparum luciferase growth in erythrocytes; series mostly up to 28.7 µM; activity change, negative = inhibition: at the top concentration
In short: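 Here the parasites carry a stable luciferase gene and grow inside erythrocytes in Albumax-based RPMI medium with compound for one erythrocytic cycle. Activity is scored as loss of luminescent signal.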
With Cn1nc(OC(=O)Nc2ccccc2)cc1C(F)(F)F the “activity change, negative = inhibition” value was inactive: 63.2%. In the case of COC(=O)c1c(C)oc2ccc(N(C(=O)c3ccncc3)S(=O)(=O)c3ccccc3)cc12, the “activity change, negative = inhibition” value is reported as inactive: 15.4%. For CCOC(=O)c1c(C)[nH]c(C)c1C(=O)CSc1nc2ccccc2c(=O)n1-c1ccc(F)cc1, the Potency was inconclusive [inhibitor, single point]. For CSc1ccccc1NC(=O)CN(C)Cc1cc(=O)n2ccsc2n1, the “activity change, negative = inhibition” value was inactive: 0.618%. In the case of CCOC(=O)N1CCC(NC(=O)C(C)n2c3ccccc3c3cnn(C)c(=O)c32)CC1 (centres undefined), the Potency is reported as inconclusive [inhibitor, partial curve]. For CN(CC(=O)Nc1ccccc1Br)C(=O)c1ccccc1OCc1ccc(F)cc1, the Potency was inconclusive [inhibitor, single point]. In the case of Cc1cc(-c2nnc(SCC(=O)Nc3ccccc3F)n2N)n[nH]1, the Potency is reported as inconclusive [inhibitor, partial curve, poor fit]. With CCOCCCNC(=O)CCn1ccc2cc(S(=O)(=O)N3CCCC3)ccc21 the Potency was inconclusive [inhibitor, partial curve, poor fit]. With Cc1cccc(Cn2c(C(C)(C)C)cc3cccnc32)c1 the Potency was inconclusive [inhibitor, single point]. For CC(NC(=O)Cc1ccsc1)c1ccc(Cl)cc1Cl (centres undefined), the Potency was inconclusive [inhibitor, partial curve, poor fit]. In the case of O=C(NCc1ccccn1)c1cn(-c2ccccc2)nc1-c1ccc(Cl)cc1, the Potency is reported as inconclusive [inhibitor, single point]. With Cc1cccc(OCc2ccc(C(=O)Nc3cc(C)on3)o2)c1 the Potency was inconclusive [inhibitor, partial curve, poor fit]. In the case of CCOC(=O)Cn1c(=O)c2c(nc(Br)n2Cc2ccccc2)n(C)c1=O, the “activity change, negative = inhibition” value is reported as inactive: -15.3%. For CCNC(=S)N(CCCO)Cc1cc2cc3c(cc2[nH]c1=O)OCCO3, the “activity change, negative = inhibition” value was inactive: 50.3%. For c1ccc(-c2nnc(CSc3ccc4c(c3)OCCO4)o2)cc1, the “activity change, negative = inhibition” value was inactive: -9.83%. In the case of Cc1cc(C)cc(C(=O)N2CCN(Cc3ccc4c(c3)OCO4)CC2)c1, the “activity change, negative = inhibition” value is reported as inactive: 0.938%. In the case of COc1ccc2ccccc2c1/C=N/NC(=O)c1nnn(-c2nonc2N)c1C(C)C, the Potency is reported as inconclusive [inhibitor, partial curve, poor fit]. For Cc1cc(S(=O)(=O)N2CCCC(N(C)CCc3ccccn3)C2)c(C)cc1Cl (centres undefined), the Potency was inconclusive [inhibitor, partial curve, poor fit]. For Cc1ccccc1NC(=O)COC(=O)Cc1cccc(C(F)(F)F)c1, the “activity change, negative = inhibition” value was inactive: -41.8%.
